Reference: the supplement of paper PMC11876631
± gives the standard deviation of the averaged measurements. Laboratory Escherichia coli strains with one amino-acid change in an essential protein, pooled on minimal glucose agar with carbenicillin or gentamicin at twice the control MIC (plus kanamycin and chloramphenicol for the plasmids), 48 h. Fold change of barcode share against drug-free plates; higher = less susceptible. Active = above 20 in both replicates (the paper's putatively resistant). '<' = one read or none on drug, '>' = one read or none on a drug-free plate. Shares are relative, so most strains fall below 1 when a few take over. Listed are strains with at least 15 reads on both drug-free plates, and hits; most hits rest on fewer reference reads. Replicate rank correlation about 0.5. Edits are read from barcodes.

B1: argH F259A (protein)
chain: MALWGGRFTQAADQRFKQFNDSLRFDYRLAEQDIVGSVAWSKALVTVGVLTAEEQAQLEEALNVLLEDVRARPQQILESDAEDIHSWVEGKLIDKVGQLGKKLHTGRSRNDQVATDLKLWCKDTVSELLTANRQLQSALVETAQNNQDAVMPGYTHLQRAQPVTFAHWCLAYVEMLARDESRLQDALKRLDVSPLGCGALAGTAYEIDREQLAGWLGFASATRNSLDSVSDRDHVLELLSAAAIGMVHLSRFAEDLIFANTGEAGFVELSDRVTSGSSLMPQKKNPDALELIRGKCGRVQGALTGMMMTLKGLPLAYNKDMQEDKEGLFDALDTWLDCLHMAALVLDGIQVKRPRCQEAAQQGYANATELADYLVAKGVPFREAHHIVGEAVVEAIRQGKPLEDLPLSELQKFSQVIDEDVYPILSLQSCLDKRAAKGGVSPQQVAQAIAFAQARLG
B2: hisF V127Q (protein)
chain: MLAKRIIPCLDVRDGQVVKGVQFRNHEIIGDIVPLAKRYAEEGADELVFYDITASSDGRVVDKSWVSRVAEVIDIPFCVAGGIKSLEDAAKILSFGADKISINSPALADPTLITRLADRFGVQCIVQGIDTWYDAETGKYHVNQYTGDESRTRVTQWETLDWVQEVQKRGAGEIVLNMMNQDGVRNGYDLEQLKKVREVCHVPLIASGGAGTMEHFLEAFRDADVDGALAASVFHKQIINIGELKAYLATQGVEIRIC
B3: hisF V127D (protein)
chain: MLAKRIIPCLDVRDGQVVKGVQFRNHEIIGDIVPLAKRYAEEGADELVFYDITASSDGRVVDKSWVSRVAEVIDIPFCVAGGIKSLEDAAKILSFGADKISINSPALADPTLITRLADRFGVQCIVDGIDTWYDAETGKYHVNQYTGDESRTRVTQWETLDWVQEVQKRGAGEIVLNMMNQDGVRNGYDLEQLKKVREVCHVPLIASGGAGTMEHFLEAFRDADVDGALAASVFHKQIINIGELKAYLATQGVEIRIC
B4: hisA L46W (protein)
chain: MIIPALDLIDGTVVRLHQGDYGKQRDYGNDPLPRLQDYAAQGAEVWHLVDLTGAKDPAKRQIPLIKTLVAGVNVPVQVGGGVRSEEDVAALLEAGVARVVVGSTAVKSQDMVKGWFERFGADALVLALDVRIDEQGNKQVAVSGWQENSGVSLEQLVETYLPVGLKHVLCTDISRDGTLAGSNVSLYEEVCARYPQVAFQSSGGIGDIDDVAALRGTGVRGVIVGRALLEGKFTVKEAIACWQNA
B5: hisA L46P (protein)
chain: MIIPALDLIDGTVVRLHQGDYGKQRDYGNDPLPRLQDYAAQGAEVPHLVDLTGAKDPAKRQIPLIKTLVAGVNVPVQVGGGVRSEEDVAALLEAGVARVVVGSTAVKSQDMVKGWFERFGADALVLALDVRIDEQGNKQVAVSGWQENSGVSLEQLVETYLPVGLKHVLCTDISRDGTLAGSNVSLYEEVCARYPQVAFQSSGGIGDIDDVAALRGTGVRGVIVGRALLEGKFTVKEAIACWQNA
B6: hisA L126A (protein)
chain: MIIPALDLIDGTVVRLHQGDYGKQRDYGNDPLPRLQDYAAQGAEVLHLVDLTGAKDPAKRQIPLIKTLVAGVNVPVQVGGGVRSEEDVAALLEAGVARVVVGSTAVKSQDMVKGWFERFGADALVAALDVRIDEQGNKQVAVSGWQENSGVSLEQLVETYLPVGLKHVLCTDISRDGTLAGSNVSLYEEVCARYPQVAFQSSGGIGDIDDVAALRGTGVRGVIVGRALLEGKFTVKEAIACWQNA
B7: hisA I208Q (protein)
chain: MIIPALDLIDGTVVRLHQGDYGKQRDYGNDPLPRLQDYAAQGAEVLHLVDLTGAKDPAKRQIPLIKTLVAGVNVPVQVGGGVRSEEDVAALLEAGVARVVVGSTAVKSQDMVKGWFERFGADALVLALDVRIDEQGNKQVAVSGWQENSGVSLEQLVETYLPVGLKHVLCTDISRDGTLAGSNVSLYEEVCARYPQVAFQSSGGIGDQDDVAALRGTGVRGVIVGRALLEGKFTVKEAIACWQNA
B8: hisA I9A (protein)
chain: MIIPALDLADGTVVRLHQGDYGKQRDYGNDPLPRLQDYAAQGAEVLHLVDLTGAKDPAKRQIPLIKTLVAGVNVPVQVGGGVRSEEDVAALLEAGVARVVVGSTAVKSQDMVKGWFERFGADALVLALDVRIDEQGNKQVAVSGWQENSGVSLEQLVETYLPVGLKHVLCTDISRDGTLAGSNVSLYEEVCARYPQVAFQSSGGIGDIDDVAALRGTGVRGVIVGRALLEGKFTVKEAIACWQNA
B9: hisA I208A (protein)
chain: MIIPALDLIDGTVVRLHQGDYGKQRDYGNDPLPRLQDYAAQGAEVLHLVDLTGAKDPAKRQIPLIKTLVAGVNVPVQVGGGVRSEEDVAALLEAGVARVVVGSTAVKSQDMVKGWFERFGADALVLALDVRIDEQGNKQVAVSGWQENSGVSLEQLVETYLPVGLKHVLCTDISRDGTLAGSNVSLYEEVCARYPQVAFQSSGGIGDADDVAALRGTGVRGVIVGRALLEGKFTVKEAIACWQNA
B10: hisA L48Q (protein)
chain: MIIPALDLIDGTVVRLHQGDYGKQRDYGNDPLPRLQDYAAQGAEVLHQVDLTGAKDPAKRQIPLIKTLVAGVNVPVQVGGGVRSEEDVAALLEAGVARVVVGSTAVKSQDMVKGWFERFGADALVLALDVRIDEQGNKQVAVSGWQENSGVSLEQLVETYLPVGLKHVLCTDISRDGTLAGSNVSLYEEVCARYPQVAFQSSGGIGDIDDVAALRGTGVRGVIVGRALLEGKFTVKEAIACWQNA
B11: hisA L48A (protein)
chain: MIIPALDLIDGTVVRLHQGDYGKQRDYGNDPLPRLQDYAAQGAEVLHAVDLTGAKDPAKRQIPLIKTLVAGVNVPVQVGGGVRSEEDVAALLEAGVARVVVGSTAVKSQDMVKGWFERFGADALVLALDVRIDEQGNKQVAVSGWQENSGVSLEQLVETYLPVGLKHVLCTDISRDGTLAGSNVSLYEEVCARYPQVAFQSSGGIGDIDDVAALRGTGVRGVIVGRALLEGKFTVKEAIACWQNA
B12: hisA I208W (protein)
chain: MIIPALDLIDGTVVRLHQGDYGKQRDYGNDPLPRLQDYAAQGAEVLHLVDLTGAKDPAKRQIPLIKTLVAGVNVPVQVGGGVRSEEDVAALLEAGVARVVVGSTAVKSQDMVKGWFERFGADALVLALDVRIDEQGNKQVAVSGWQENSGVSLEQLVETYLPVGLKHVLCTDISRDGTLAGSNVSLYEEVCARYPQVAFQSSGGIGDWDDVAALRGTGVRGVIVGRALLEGKFTVKEAIACWQNA
B13: hisA I208P (protein)
chain: MIIPALDLIDGTVVRLHQGDYGKQRDYGNDPLPRLQDYAAQGAEVLHLVDLTGAKDPAKRQIPLIKTLVAGVNVPVQVGGGVRSEEDVAALLEAGVARVVVGSTAVKSQDMVKGWFERFGADALVLALDVRIDEQGNKQVAVSGWQENSGVSLEQLVETYLPVGLKHVLCTDISRDGTLAGSNVSLYEEVCARYPQVAFQSSGGIGDPDDVAALRGTGVRGVIVGRALLEGKFTVKEAIACWQNA
B14: hisA I9W (protein)
chain: MIIPALDLWDGTVVRLHQGDYGKQRDYGNDPLPRLQDYAAQGAEVLHLVDLTGAKDPAKRQIPLIKTLVAGVNVPVQVGGGVRSEEDVAALLEAGVARVVVGSTAVKSQDMVKGWFERFGADALVLALDVRIDEQGNKQVAVSGWQENSGVSLEQLVETYLPVGLKHVLCTDISRDGTLAGSNVSLYEEVCARYPQVAFQSSGGIGDIDDVAALRGTGVRGVIVGRALLEGKFTVKEAIACWQNA
B15: hisA V211A (protein)
chain: MIIPALDLIDGTVVRLHQGDYGKQRDYGNDPLPRLQDYAAQGAEVLHLVDLTGAKDPAKRQIPLIKTLVAGVNVPVQVGGGVRSEEDVAALLEAGVARVVVGSTAVKSQDMVKGWFERFGADALVLALDVRIDEQGNKQVAVSGWQENSGVSLEQLVETYLPVGLKHVLCTDISRDGTLAGSNVSLYEEVCARYPQVAFQSSGGIGDIDDAAALRGTGVRGVIVGRALLEGKFTVKEAIACWQNA
B16: hisA V224A (protein)
chain: MIIPALDLIDGTVVRLHQGDYGKQRDYGNDPLPRLQDYAAQGAEVLHLVDLTGAKDPAKRQIPLIKTLVAGVNVPVQVGGGVRSEEDVAALLEAGVARVVVGSTAVKSQDMVKGWFERFGADALVLALDVRIDEQGNKQVAVSGWQENSGVSLEQLVETYLPVGLKHVLCTDISRDGTLAGSNVSLYEEVCARYPQVAFQSSGGIGDIDDVAALRGTGVRGVIAGRALLEGKFTVKEAIACWQNA
B17: hisA L46Q (protein)
chain: MIIPALDLIDGTVVRLHQGDYGKQRDYGNDPLPRLQDYAAQGAEVQHLVDLTGAKDPAKRQIPLIKTLVAGVNVPVQVGGGVRSEEDVAALLEAGVARVVVGSTAVKSQDMVKGWFERFGADALVLALDVRIDEQGNKQVAVSGWQENSGVSLEQLVETYLPVGLKHVLCTDISRDGTLAGSNVSLYEEVCARYPQVAFQSSGGIGDIDDVAALRGTGVRGVIVGRALLEGKFTVKEAIACWQNA

molecular target: Escherichia coli (laboratory strain); experiment: barcode share on antibiotic plates over drug-free plates; higher = less susceptible; details: antibiotic: carbenicillin; 2× MIC (3.1 µg/mL)
Protocol: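 A pool of E. coli strains, each edited to carry one amino-acid change in an essential protein, was grown for 48 h on minimal glucose agar with or without antibiotic; strain barcodes were sequenced; mean of two replicates.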

Protein | fold change of barcode share
B1 | 4.62 ± 6
B2 | 0.628 ± 0.03
B3 | 0.607 ± 0.23
B4 | 3.78 ± 2.3
B5 | 7.28 ± 2.6
B6 | 3.74 ± 0.64
B7 | 0.63 ± 0.11
B8 | 1.56 ± 0.26
B9 | 0.483 ± 0.12
B10 | 61.1 [active]
B11 | 0.764 ± 0.018
B12 | 0.486 ± 0.1
B13 | 0.951 ± 0.7
B14 | 0.543 ± 0.16
B15 | 2.51 ± 0.8
B16 | 1.09 ± 0.22
B17 | 0.898 ± 0.023

same assay, conditions: antibiotic: gentamicin; 2× MIC (MIC 0.45 µg/mL)

Protein | fold change of barcode share
B1 | < 0.0208
B2 | 0.0199 ± 0.0069
B4 | 0.08982 ± 6.1e-05
B7 | 0.0103 ± 0.0057
B8 | < 0.0115
B9 | 1.74 ± 0.26
B11 | 0.377 ± 0.098
B12 | 0.0279 ± 0.015
B13 | < 0.015
B14 | < 0.0091
B15 | 0.0464 ± 0.0072
B16 | 0.45 ± 0.62
B17 | 0.0147 ± 0.0039
